Experimental data: ChEMBL document CHEMBL1201862, “PubChem BioAssay data set” (2004)

The compounds below were run on NCI-H322M (assay: NCI tumour cell line growth inhibition, 48 h).

Row | SMILES | GI50
1 | N#C/C(c1nc2ccccc2[nH]1)=c1\s/c(=C/c2ccc(Cl)cc2)c(=O)n1-c1ccccc1 | inactive: > 100 µM
2 | COC1=CC(=O)C2C(C1=O)C(c1ccc(Cl)cc1)[C@@H]2C (stereo partly drawn) | inactive: 36.1 µM
3 | COc1ccc(/C(C#N)=C(/N)SCc2ccccc2Cl)cc1 | inactive: 26.2 µM
4 | C/N=c1\ss/c(=N\C(=S)N(C)C)n1C1CCCCC1 | inactive: > 31.6 µM
5 | COc1cc(OC)cc(N2CCC(c3c(N)nc(N)nc3Cl)CC2)c1 | inactive: > 100 µM
6 | CC(C)(C)C1CCC2c3c([nH]c4ccccc34)C3C(=O)N(c4ccc5c(c4)C(=O)c4ccccc4C5=O)C(=O)C3C2C1 (stereo not drawn) | inactive: > 100 µM
7 | O=C(CN(Cc1ccccc1)Cc1ccccc1)N1CCc2c([nH]c3ccccc23)C1c1cccnc1 (stereo not drawn) | inactive: 36.6 µM
8 | CN(C)CCn1c(=O)c2ccc(NCCCN(C)CCCNc3ccc4c(=O)n(CCN(C)C)c(=O)n5c6ccc(O)cc6c(=O)c3c45)c3c(=O)c4cc(O)ccc4n(c1=O)c23 | active: < 0.01 µM
9 | Cc1cnc(Cl)nc1C(C#N)c1nc2ccccc2n1C (stereo not drawn) | inactive: 30.3 µM
10 | CCCCCCCCCCn1cccc1/C=C/c1ccc(/C=C/c2cccn2CCCCCCCCCC)cc1 | inactive: > 100 µM
11 | O=c1c2ccccc2nc(N/N=C/c2ccc([N+](=O)[O-])cc2)n1-c1ccccc1 | inactive: 31.1 µM
12 | CC(C)(C)c1cc(Cc2ccc(S(C)(=O)=O)cc2)c(O)c(C(C)(C)C)c1 | inactive: 14.2 µM
13 | CCOC(=O)C(=O)/C(=C/NC(=S)c1ccncc1)C(=O)OCC | inactive: > 100 µM
14 | Brc1ccc2c(-c3csc(-c4c[nH]c5cc(Br)ccc45)n3)c[nH]c2c1 | inactive: 27.2 µM
15 | CC(=O)Nc1c(C)ccc2c1C(=O)c1ccccc1C2=O | inactive: > 100 µM
16 | O=C(Cn1c(C(=O)/C=C/c2ccc(Cl)cc2)nc2ccccc21)c1ccc(Cl)cc1 | inactive: 21.6 µM
17 | CCOC(=O)CCC(NC(=O)c1ccc(CNc2nc3cc(N)cc(N)c3nc2-c2ccccc2)cc1)C(=O)OCC (stereo not drawn) | inactive: > 47.1 µM
18 | COC(=O)C1=C(C)NC(CF)=C(C(=O)OC)C1c1cccc2c(=O)c3ccccc3oc12 (stereo not drawn) | inactive: 13.9 µM
19 | CCOCc1nc2c(OC)c(-c3nc4ccc(N5CCN(C)CC5)cc4[nH]3)cc(OC)c2[nH]1 | inactive: 65.9 µM
20 | Nc1ccc2nc(-c3cccc(Cl)c3)cc(O)c2c1 | inactive: 7.73 µM
21 | CCc1c(Cc2[nH]c(Cc3[nH]c(C=O)c(C)c3CC)c(CC)c2CC)[nH]c(C=O)c1C | inactive: > 100 µM
22 | CC1=C2C3OC(=O)C(C)C3CCC2(C)C=C/C1=N\c1ccccc1 (stereo not drawn) | inactive: > 100 µM

Row | SMILES | GI50
23 | N=c1oc2ccc3ccccc3c2cc1-c1nc(O)c2ccccc2n1 | inactive: 32.5 µM
24 | O=C1OC(c2ccc(O)c(Cl)c2)(c2ccc(O)c(Cl)c2)c2ccc(Br)c3cccc1c23.O=C1OC(c2ccc(O)c(Cl)c2)(c2ccc(O)c(Cl)c2)c2cccc3c(Br)ccc1c23 | inactive: 12.5 µM
25 | CC12CC(=O)C3C(C(=O)C1)C32C (stereo not drawn) | inactive: > 100 µM
26 | CCN(CC)C(=S)SNCc1ccc(S(N)(=O)=O)cc1 | inactive: 36.4 µM
27 | C=C[C@@]1(C)CC2(C=C(CO)C(O)O2)Oc2c1c(=O)oc1cccc(C)c21 (stereo partly drawn) | inactive: 22.9 µM
28 | CC1=C(N2CC2)C(=O)C(C)=C(N2CC2)C1=O | active: 0.505 µM
29 | CC[C@@]1(O)C(=O)OCc2c1cc1n(c2=O)Cc2c-1nc1ccccc1c2/C=N\NC(=O)CN | inactive: 2.7 µM
30 | O=C1NC(c2ccc(O)cc2)C2CCC1C2 (stereo not drawn) | inactive: > 100 µM
31 | Cc1c(Br)c(Br)c(C)[s+]1[O-] | inactive: 15 µM
32 | CCOC(=O)C1(N)CCc2[nH][nH]c(=O)c2C1 (stereo not drawn) | inactive: > 100 µM
33 | FC(F)(F)c1nc(Br)[nH]c1C(F)(F)F | inactive: > 100 µM
34 | COCOC1/C=C/CCCC#C[C@H](C)C(=O)CC1 (stereo partly drawn) | inactive: 14.9 µM
35 | CCNC(=O)Nc1ccccn1 | inactive: > 100 µM
36 | c1ccc2c(c1)C(=Nc1ccc(N=C3c4ccccc4-c4ccccc43)cc1)c1ccccc1-2 | inactive: > 100 µM
37 | Clc1ccc(OCc2nnc(CCCCCCCCc3nnc(COc4ccc(Cl)cc4)n3Nc3ccccc3)n2Nc2ccccc2)cc1 | inactive: 24.2 µM
38 | Cc1ccc(S(=O)(=O)NNC2(NS(=O)(=O)c3ccc(Cl)cc3)C(Cl)=C(Cl)C(=O)c3ccccc32)cc1 (stereo not drawn) | inactive: 16.7 µM
39 | C/C(=N/NC(N)=S)C(CN1CCOCC1)C(C1=C(O)c2ccccc2OC1)c1ccccc1 (stereo not drawn) | inactive: > 100 µM
40 | O=C(CCN1CCOCC1)Nc1ccc(F)cc1F | inactive: > 100 µM
41 | O=C1Nc2ccc(Cl)cc2C(=O)N2CCC[C@@H]12 | inactive: > 100 µM
42 | Cc1nc2ccccc2n1Cc1nnc(-c2ccccc2)o1 | inactive: > 100 µM
43 | C/C(=C\c1ccccc1)C(=O)CCN1CCOCC1 | inactive: > 100 µM
44 | COc1ccc(/C=C/c2cc(OC)c(OCc3ccccc3)c(OC)c2)cc1 | inactive: > 100 µM

Row | SMILES | GI50
45 | Cc1ccc(S(=O)(=O)NC2(C=O)CCCC3CCCCC32)cc1 (stereo not drawn) | inactive: > 100 µM
46 | COc1ccc(C(O)/C(=N\NC(N)=S)c2nc3ccc([N+](=O)[O-])cc3nc2O)cc1OC (stereo not drawn) | inactive: > 100 µM
47 | NC(=S)N/N=C1\CCCCc2ccccc21 | inactive: > 10 µM
48 | C[C@H]1C(=O)O[C@@H]2CCN3CC=C(COC(=O)[C@](C)(O)[C@@]1(C)O)[C@H]23 | inactive: > 100 µM
49 | O=[N+]([O-])c1ccc(Cl)c(CNc2ncnc3c2ncn3C2CCCCO2)c1 (stereo not drawn) | inactive: > 100 µM
50 | CC(C)(C)C(=O)C1CC(=O)c2ccccc2C1=O (stereo not drawn) | inactive: 20.2 µM
51 | COC(=O)/C(C#N)=C(\N)c1c(C)c2ccccc2oc1=N | inactive: > 100 µM
52 | CCOC(=O)NC(Nc1ncccn1)(C(F)(F)F)C(F)(F)F | inactive: > 100 µM
53 | OCC(O)C(O)C(O)C1SC(c2ccccc2)=NN1c1ccccc1 (stereo not drawn) | inactive: > 100 µM
54 | c1csc(-c2csc(-c3ccsc3)c2)c1 | inactive: > 100 µM
55 | Cc1cc2c(=O)cc(-c3cccs3)oc2c(C(=O)O)c1C | inactive: > 100 µM
56 | Oc1ccccc1/C=C/c1csnn1 | inactive: > 100 µM
57 | COC1=CC(=O)N(C(=O)[C@@H](OC(=O)[C@@H](C)N(C)C(=O)[C@@H]2CCCN2C(=O)[C@H](C(C)C)N(C)C(=O)[C@@H](NC(=O)[C@H](C(C)C)N(Cc2ccccc2)Cc2ccccc2)C(C)C)C(C)C)[C@H]1Cc1ccccc1 (Bn2Val-V[NMeV]P[dNMeA]-X23) | inactive: > 100 µM
58 | CCN(CC)CCNc1ccc2nc(C)n3c4ccc(OC)cc4c(=O)c1c23 | inactive: 1.13 µM
59 | CCCCCCCCCCCCCCCCCC(=O)OCC(COC(=O)CCCN)OC(=O)CCCN (stereo not drawn) | inactive: 17.4 µM
60 | CC(C)=CC1C(C(=O)Oc2ccccc2C(C)C)C1(C)C (stereo not drawn) | inactive: 31.6 µM
61 | O=C1C2C=CC(n3[nH]c(=O)n(Cc4ccccc4)c3=O)CC2C(=O)N1c1cccc(Cl)c1 (stereo not drawn) | inactive: > 100 µM
62 | CC(C)(/C=N\O)NO | inactive: > 10 µM
63 | CCCN1CN(C(C(=O)N[C@@H]2C(=O)N3C(C(=O)O)=C(C)CSC23)c2ccc(O)cc2)CSC1=S (stereo partly drawn) | inactive: > 100 µM
64 | Cc1cc(C)cc(Nc2nnc3n2S(=O)(=O)c2cc(C)c(Cl)cc2S3)c1 | inactive: 17.8 µM
65 | O=C1CCCC(=O)N1n1c(Cc2ccccc2)n[nH]c1=O | inactive: > 100 µM
66 | O=C(C(=O)n1ccc2ccccc21)n1ccc2ccccc21 | inactive: > 100 µM

Row | SMILES | GI50
67 | O=C1OC(c2ccccc2)(c2ccccc2)CC1CN1CCOCC1 (stereo not drawn) | inactive: 44.1 µM
68 | COc1ccc(CC2c3cc4c(cc3CCN2C)OCO4)c(C=O)c1OC (stereo not drawn) | inactive: > 100 µM
69 | CC(C)=CCC(O)C1=CC(=O)c2c(O)ccc(O)c2C1=O (stereo not drawn) | inactive: 2.39 µM
70 | CN1[C@@H]2C[C@@H](OC(=O)[C@H](CO)c3ccccc3)C[C@H]1[C@@H]1O[C@@H]12 [SCOPOLAMINE HYDROBROMIDE] | inactive: > 100 µM
71 | Cc1nc2c(o1)C(=O)c1ccccc1/C2=N\c1ccccc1 | inactive: 15.9 µM
72 | N#CCN(Cc1ccccc1)[C@H]1CCC[C@]1(O)/C=C/c1ccc2c(c1)OCO2 | inactive: 33.1 µM
73 | O=C(NCc1cccc(C(F)(F)F)c1)c1cc2sccc2nc1C(F)(F)F | inactive: 38.2 µM
74 | NC1=NNC2(C(N)=N1)c1ccccc1-c1ccccc12 | inactive: > 10 µM
75 | O=C(O)C1CSC2(CCCN(Cc3ccccc3)C2)N1 (stereo not drawn) | inactive: > 100 µM
76 | C/C(=C/c1ccccc1)CN(C(=O)/C=C\Sc1ccccc1)C(C)(C)C | inactive: > 100 µM
77 | C/C(CC(O)(C(F)(F)F)C(F)(F)F)=N\NC(N)=O | inactive: > 10 µM
78 | CCOC(=O)n1c(=O)nc2c3c(ncn21)Oc1c(c(-c2ccccc2)nn1-c1ccccc1)C3c1ccc(Cl)cc1 (stereo not drawn) | inactive: 1.37 µM
79 | CC(=O)OCC1OC(O[C@@H]2c3c(O)c4c(c(O)c3C3=C(NN(c5ccc([N+](=O)[O-])cc5[N+](=O)[O-])[Se]3=O)[C@@]2(C)O)C(=O)c2ccccc2C4=O)C(OC(C)=O)C(OC(C)=O)C1OC(C)=O (stereo partly drawn) | active: 0.232 µM
80 | C[C@]12OC(=O)[C@]3(O)CC[C@H]4[C@@H](C[C@@H](O)[C@@]5(Cl)CC=CC(=O)[C@]45C)[C@]45OCC6C(=O)O[C@@H]1C[C@@]6(C)[C@H](C4=O)[C@@]32O5 (stereo partly drawn) | inactive: 5.04 µM
81 | COc1cc2c(cc1OC)CC(N=[N+]=[N-])c1cc(OC)c(OC)cc1/C=C\2 (stereo not drawn) | inactive: 43.9 µM
82 | O=[N+]([O-])c1ccc(S(=O)(=O)N=Ic2ccccc2)cc1 | inactive: > 100 µM
83 | N#CC(C(=O)/C(=N\Nc1nc(S)nn1N)C(C#N)c1ccc(Cl)cc1)c1ccc(Cl)cc1 (stereo not drawn) | inactive: > 100 µM
84 | O=C(/C=C/c1ccc(-c2ccccc2)cc1)NCc1ccc(C(=O)NCc2ccccc2)cc1 | inactive: > 100 µM
85 | CCOC(=S)SCC(=O)O | inactive: > 100 µM
86 | COc1cc(/C=N/N=C2NCCCN2)ccc1O | inactive: > 100 µM
87 | CC1=C(O)C(=O)C=C2C1=CC=C1[C@@]2(C)CC[C@@]2(C)[C@@H]3C[C@](C)(C(=O)O)CC[C@]3(C)CC[C@]12C [CELASTROL] | active: 0.528 µM
88 | O=C(NCCCCCCNC(=O)n1cc(F)c(=O)[nH]c1=O)NCCCOCCOCCCNC(=O)C(O)C(O)C(O)C(O)CO (stereo not drawn) | inactive: > 2.33 µM

Structures can show the parent of a compound that is named as a salt.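 Growth conditions: 96-well plates. Treatment: test compound, 48 hours, 5 concentrations. Analysis: linear interpolation between bracketing concentrations; unreached endpoints set to highest concentration. At the GI50, growth is halved.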 The source made the active and inactive calls. Cut-off read from the data, not from the text of the source: active = GI50 up to about 1.1 µM and inactive = higher. Square brackets hold non-standard residues; d marks the D form. Peptide text beside a SMILES is read from it. * marks the point of attachment. X23 = COC1=CC(=O)N(C(=O)[C@@H](O*)C(C)C)[C@H]1Cc1ccccc1; Bn2Val = CC(C)[C@@H](C(=O)*)N(Cc1ccccc1)Cc1ccccc1; NMeV = CN[C@H](C(=O)O)C(C)C; dNMeA = CN[C@H](C)C(=O)O
